Among the data in PubChem BioAssay AID1625 (Sanford-Burnham Center for Chemical Genomics, 2009) are cell count values, retold here.

This is one part of the list. Further columns of the screen follow, without active or inactive calls. The list favours compounds with an active or inconclusive main result.

The nature of the experiment: up-regulation of insulin promoter-GFP reporter – imaging, high-content screening, mouse beta cells (AID 1625).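 Also: total cells summed across four imaged fields per well.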 The conditions noted are these: MIN6 insulin promoter-GFP reporter, measured here: cytotoxicity, nuclei count, at 5 µM.
Molecule `CCN(CC)c1ccc(/C=C(\C#N)C(=O)c2ccc(Br)cc2)cc1` showed a cell count of 1240 cells.

`N#Cc1ccc(-c2ccccc2)nc1SCC(=O)c1cccc(Cl)c1` showed a cell count of 1670 cells.

Take `Nc1c(C(=O)C2CC2)sc2nc(-c3cccs3)cc(C(F)(F)F)c12`: the cell count came out at 913 cells.

On to `COc1cccc(NC(=O)Cn2c(-c3cncs3)nc3ccccc32)c1`, for which the cell count stood at 942 cells.

The molecule `CC(=O)C(=Cc1cn(-c2ccccc2)nc1-c1ccccc1)C(C)=O` registered a cell count of 1320 cells.

In turn, `COc1cccc2c1C(CO)N1C(C#N)C3CC(C(=O)O)C(C1C2)N3C` (centres undefined) had a cell count of 271 cells.

As to `CCOC(=O)c1sc2nc(CC(=O)OC)nc(NCC(=O)OC)c2c1C`, the cell count amounted to 414 cells.

In turn, `CN(C)CCCNS(=O)(=O)c1ccc(N2CCC(c3ccc(Cl)cc3)=N2)cc1` came in with a cell count of 349 cells.

Take `O=C(Nc1cnn(C23CC4CC(CC(C4)C2)C3)c1)c1cnn2c(C(F)(F)F)cc(-c3ccco3)nc12`: the cell count was determined as 371 cells.

Regarding `Cc1ccc(-n2c(Cl)c(Cl)nc(Cl)c2=O)cc1`, the cell count stood at 187 cells.

Regarding `CC(C)(C)c1ccc(OCC(=O)Nc2ccc3c4c(cccc24)C(=O)NC3=O)cc1`, the cell count was 1420 cells.

`CSc1snnc1-c1ccccc1` returned a cell count of 442 cells.

Regarding `CCN(CC)c1ccc(Nc2nc(N3CCOCC3)c3ccccc3n2)cc1`, the cell count is 217 cells.

In turn, `Cc1cc(/C=C2/C(=O)N(C)C(=S)N2C)ccc1N1CCCC1` gave a cell count of 1490 cells.

With `O=C1S/C(=C/c2ccc(N3CCOCC3)o2)C(=O)N1Cc1c(F)cccc1Cl`, the cell count was 863 cells.

The molecule `CCCCCCCCC[n+]1cccc2c3ccccc3ccc21` showed a cell count of 339 cells.

In the case of `Cc1ccc(Cn2c(=N)n(CC(O)COc3ccccc3)c3ccccc32)cc1` (centres undefined), the cell count turned out to be 421 cells.

`c1ccc(-c2cnn3c(-c4ccccc4)c(-c4ccccc4)nc3n2)cc1` registered a cell count of 1380 cells.

For the molecule `Cn1c[n+](C)cc1-c1ccc(/C(N)=N/O)cc1`, the cell count stood at 489 cells.

Molecule `Cc1ccc(-c2c[n+](Cc3ccc(Cl)c(Cl)c3)c3n2CCC3)cc1` returned a cell count of 334 cells.

`FC(F)(F)c1nc(-c2cccs2)ncc1-c1nnnn1-c1ccc(Cl)cc1`: the cell count is 435 cells.

`CCN(CC)CCN1C(=O)c2oc3ccccc3c(=O)c2C1c1ccccc1` (centres undefined) displayed a cell count of 957 cells.

`CCOC(=O)N1CCC(NC(=O)c2cc(C(=O)Nc3ccc(OC)c(OC)c3)ccc2CO)CC1` had a cell count of 1180 cells.

On to `Cc1cc(Cl)c(S(=O)(=O)N2CCN(c3ccc(F)cc3)CC2)cc1OCC(=O)NC1CCCCC1`, for which the cell count stood at 471 cells.

Molecule `Cc1nc2ccc(NC(=O)c3cc(S(=O)(=O)N(C)c4ccccc4)ccc3Cl)cc2s1` showed a cell count of 435 cells.

Molecule `O=[N+]([O-])c1ccc(/C=C/C2=NN(c3ccccc3)C(c3ccco3)C2)o1` (centres undefined) had a cell count of 1180 cells.

`Cc1ccc(S(=O)(=O)NCc2ccncc2)cc1` had a cell count of 439 cells.

`c1ccc2c(c1)OCC(CNc1ncnc3sccc13)O2` (centres undefined) yielded a cell count of 413 cells.

Molecule `COc1ccc(CCn2c(NCc3ccco3)nc3c2c(=O)[nH]c(=O)n3C)cc1` returned a cell count of 472 cells.
